Assay results taken from patent US20180072782A1 (UNIVERSITY OF GEORGIA RESEARCH FOUNDATION, published 2018).

Biological target: T1, NCKAP1 overexpressed in MDA-MB-231 cells (pCDH-CMV-MCS-EF1-PURO-NCKAP1 / HA-NCKAP1 overexpression vector) (human, UniProt Q9Y2A7 2-1128)
T1 construct: The lysate also holds endogenous NCKAP1
T1 sequence (looked up): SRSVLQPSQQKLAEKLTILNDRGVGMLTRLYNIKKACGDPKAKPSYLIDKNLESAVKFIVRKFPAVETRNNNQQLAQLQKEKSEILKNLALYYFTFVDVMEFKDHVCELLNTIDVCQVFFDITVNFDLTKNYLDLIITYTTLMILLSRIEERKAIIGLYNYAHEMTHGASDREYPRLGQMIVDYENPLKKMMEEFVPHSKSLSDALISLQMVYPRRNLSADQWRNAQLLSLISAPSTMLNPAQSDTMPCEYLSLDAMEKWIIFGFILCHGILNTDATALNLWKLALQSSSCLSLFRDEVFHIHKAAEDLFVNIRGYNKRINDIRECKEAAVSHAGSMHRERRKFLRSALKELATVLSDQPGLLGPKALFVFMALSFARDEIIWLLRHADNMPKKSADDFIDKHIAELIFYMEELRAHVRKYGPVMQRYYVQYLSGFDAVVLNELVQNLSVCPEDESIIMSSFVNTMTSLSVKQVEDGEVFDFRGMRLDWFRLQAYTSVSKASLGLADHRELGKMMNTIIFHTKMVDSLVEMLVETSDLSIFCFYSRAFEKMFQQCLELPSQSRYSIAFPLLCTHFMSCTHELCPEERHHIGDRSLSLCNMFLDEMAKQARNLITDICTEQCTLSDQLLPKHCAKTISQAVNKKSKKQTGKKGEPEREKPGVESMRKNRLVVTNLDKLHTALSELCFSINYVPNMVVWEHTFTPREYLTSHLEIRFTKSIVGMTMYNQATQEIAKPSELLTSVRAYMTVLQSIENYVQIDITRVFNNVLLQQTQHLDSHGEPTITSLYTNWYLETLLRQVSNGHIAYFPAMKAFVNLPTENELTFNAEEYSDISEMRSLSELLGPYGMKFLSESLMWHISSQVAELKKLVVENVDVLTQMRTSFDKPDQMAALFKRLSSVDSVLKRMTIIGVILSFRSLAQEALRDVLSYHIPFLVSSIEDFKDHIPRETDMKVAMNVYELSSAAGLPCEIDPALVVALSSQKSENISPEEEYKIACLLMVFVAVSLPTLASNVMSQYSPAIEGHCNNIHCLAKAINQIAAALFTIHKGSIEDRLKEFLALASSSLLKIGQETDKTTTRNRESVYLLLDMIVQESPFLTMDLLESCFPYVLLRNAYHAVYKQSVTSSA
Experiment: GST pull-down from lysate of NCKAP1-overexpressing MDA-MB-231 cells, western blot

B1: GST alone (other)
chain: not shown
notes: Negative control of the pull-down
binding result: no binding
